{
  "source": "the supplement of paper PMC8728848",
  "experiment_in_all_cases": "glycan array binding signal (z-score within array); higher = stronger binding",
  "conditions_in_all_cases": "glycan notation: IUPAC condensed, linker removed",
  "key": {"Fuc(a1-2)[Gal(a1-3)]Gal": {"target": "Fuc(a1-2)[Gal(a1-3)]Gal", "procedure,_shortened": "(§1)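 Glycan array data came from 3228 arrays in the Consortium for Functional Glycomics database, and only arrays with an available protein sequence were kept. Glycan names were put into IUPAC-condensed notation, and columns mapping to the same glycan were averaged. The binding signal is a within-array Z-score, averaged across arrays of one protein sequence run at different concentrations or buffers and across linkers. A negative Z-score can be read as non-binding.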"}, "[1]": {"target": "Fuc(a1-2)[Gal(a1-3)]Gal(b1-3)GlcNAc", "procedure,_shortened": "as §1"}, "[2]": {"target": "Fuc(a1-2)[Gal(a1-3)]Gal(b1-3)GlcNAc(b1-2)Man(a1-3)[Fuc(a1-2)[Gal(a1-3)]Gal(b1-3)GlcNAc(b1-2)Man(a1-6)]Man(b1-4)GlcNAc(b1-4)GlcNAc", "procedure,_shortened": "as §1"}, "[3]": {"target": "Fuc(a1-2)[Gal(a1-3)]Gal(b1-4)Glc", "procedure,_shortened": "as §1"}, "[4]": {"target": "Fuc(a1-2)[Gal(a1-3)]Gal(b1-4)GlcNAc", "procedure,_shortened": "as §1"}, "[5]": {"target": "Fuc(a1-2)[Gal(a1-3)]Gal(b1-4)GlcNAc(b1-2)Man(a1-3)[Fuc(a1-2)[Gal(a1-3)]Gal(b1-4)GlcNAc(b1-2)Man(a1-6)]Man(b1-4)GlcNAc(b1-4)GlcNAc", "procedure,_shortened": "as §1"}, "[6]": {"target": "Fuc(a1-2)[Gal(a1-3)]Gal(b1-4)[Fuc(a1-3)]GlcNAc", "procedure,_shortened": "as §1"}, "[7]": {"target": "Fuc(a1-2)[Gal(a1-4)]Gal(b1-4)GlcNAc", "procedure,_shortened": "as §1"}, "[8]": {"target": "Fuc(a1-2)[GalNAc(a1-3)]Gal", "procedure,_shortened": "as §1"}, "[9]": {"target": "Fuc(a1-2)[GalNAc(a1-3)]Gal(b1-3)GalNAc(a1-3)[Fuc(a1-2)]Gal(b1-4)GlcNAc", "procedure,_shortened": "as §1"}, "[10]": {"target": "Fuc(a1-2)[GalNAc(a1-3)]Gal(b1-3)GlcNAc", "procedure,_shortened": "as §1"}, "[11]": {"target": "Fuc(a1-2)[GalNAc(a1-3)]Gal(b1-3)GlcNAc(b1-2)Man(a1-3)[Fuc(a1-2)[GalNAc(a1-3)]Gal(b1-3)GlcNAc(b1-2)Man(a1-6)]Man(b1-4)GlcNAc(b1-4)GlcNAc", "procedure,_shortened": "as §1"}, "[12]": {"target": "Fuc(a1-2)[GalNAc(a1-3)]Gal(b1-4)Glc", "procedure,_shortened": "as §1"}, "[13]": {"target": "Fuc(a1-2)[GalNAc(a1-3)]Gal(b1-4)GlcNAc", "procedure,_shortened": "as §1"}, "[14]": {"target": "Fuc(a1-2)[GalNAc(a1-3)]Gal(b1-4)GlcNAc(b1-2)Man(a1-3)[Fuc(a1-2)[GalNAc(a1-3)]Gal(b1-4)GlcNAc(b1-2)Man(a1-6)]Man(b1-4)GlcNAc(b1-4)GlcNAc", "procedure,_shortened": "as §1"}, "[15]": {"target": "Fuc(a1-2)[GalNAc(a1-3)]Gal(b1-4)GlcNAc(b1-3)Gal(b1-4)GlcNAc", "procedure,_shortened": "as §1"}, "[16]": {"target": "Fuc(a1-2)[GalNAc(a1-3)]Gal(b1-4)GlcNAc(b1-3)Gal(b1-4)GlcNAc(b1-3)Gal(b1-4)GlcNAc", "procedure,_shortened": "as §1"}, "[17]": {"target": "Fuc(a1-2)[GalNAc(a1-3)]Gal(b1-4)[Fuc(a1-3)]GlcNAc", "procedure,_shortened": "as §1"}, "[18]": {"target": "Fuc(a1-2)[GalNAc(a1-4)]Gal(b1-4)GlcNAc", "procedure,_shortened": "as §1"}, "[19]": {"target": "Fuc(a1-2)[GalNAc(b1-3)]Gal", "procedure,_shortened": "as §1"}, "Fuc(a1-3)GlcNAc": {"target": "Fuc(a1-3)GlcNAc", "procedure,_shortened": "as §1"}, "[20]": {"target": "Fuc(a1-3)[Gal(b1-4)]Glc6S", "procedure,_shortened": "as §1"}, "[21]": {"target": "Fuc(a1-3)[Gal(b1-4)]GlcNAc", "procedure,_shortened": "as §1"}, "[22]": {"target": "Fuc(a1-3)[Gal(b1-4)]GlcNAc(b1-2)Man(a1-3)[Fuc(a1-3)[Gal(b1-4)]GlcNAc(b1-2)Man(a1-6)]Man(b1-4)GlcNAc(b1-4)GlcNAc", "procedure,_shortened": "as §1"}, "[23]": {"target": "Fuc(a1-3)[Gal(b1-4)]GlcNAc(b1-2)Man(a1-6)[Gal(b1-4)GlcNAc(b1-2)Man(a1-3)]Man(b1-4)GlcNAc(b1-4)GlcNAc", "procedure,_shortened": "as §1"}, "[24]": {"target": "Fuc(a1-3)[Gal(b1-4)]GlcNAc(b1-3)Gal(b1-3)[Fuc(a1-4)]GlcNAc", "procedure,_shortened": "as §1"}, "[25]": {"target": "Fuc(a1-3)[Gal(b1-4)]GlcNAc(b1-3)GalNAc", "procedure,_shortened": "as §1"}, "[26]": {"target": "Fuc(a1-3)[Gal(b1-4)]GlcNAc(b1-4)Gal(b1-4)[Fuc(a1-3)]GlcNAc", "procedure,_shortened": "as §1"}, "[27]": {"target": "Fuc(a1-3)[Gal(b1-4)]GlcNAc(b1-4)Gal(b1-4)[Fuc(a1-3)]GlcNAc(b1-4)Gal(b1-4)[Fuc(a1-3)]GlcNAc", "procedure,_shortened": "as §1"}, "[28]": {"target": "Fuc(a1-3)[Gal(b1-4)]GlcNAc(b1-6)[Gal(b1-3)GlcNAc(b1-3)]Gal(b1-4)Glc", "procedure,_shortened": "as §1"}},
  "note": "The list shows a part of the results.",
  "data": [
    {"binder": "Mincle (Homo sapiens), Q9ULY5 (protein) MNSSKSSETQCTERGCFSSQMFLWTVAGIPILFLSACFITRCVVTFRIFQTCDEKKFQLPENFTELSCYNYGSGSVKNCCPLNWEYFQSSCYFFSTDTISWALSLKNCSAMGAHLVVINSQEEQEFLSYKKPKMREFFIGLSDQVVEGQWQWVDGTPLTKSLSFWDVGEPNNIATLEDCATMRDSSNPRQNWNDVTCFLNYFRICEMVGINPLNKGKSL", "values": [
      {"measurement": "glycan array binding signal (z-score)", "setting": "Fuc(a1-2)[Gal(a1-3)]Gal", "result": -0.136},
      {"measurement": "glycan array binding signal (z-score)", "setting": "[1]", "result": -0.318},
      {"measurement": "glycan array binding signal (z-score)", "setting": "[2]", "result": -0.113},
      {"measurement": "glycan array binding signal (z-score)", "setting": "[3]", "result": -0.4},
      {"measurement": "glycan array binding signal (z-score)", "setting": "[4]", "result": -0.111},
      {"measurement": "glycan array binding signal (z-score)", "setting": "[5]", "result": -0.165},
      {"measurement": "glycan array binding signal (z-score)", "setting": "[6]", "result": -0.371},
      {"measurement": "glycan array binding signal (z-score)", "setting": "[7]", "result": -0.654},
      {"measurement": "glycan array binding signal (z-score)", "setting": "[8]", "result": -0.296},
      {"measurement": "glycan array binding signal (z-score)", "setting": "[9]", "result": -0.46},
      {"measurement": "glycan array binding signal (z-score)", "setting": "[10]", "result": -0.452},
      {"measurement": "glycan array binding signal (z-score)", "setting": "[11]", "result": 0.062},
      {"measurement": "glycan array binding signal (z-score)", "setting": "[12]", "result": -0.346},
      {"measurement": "glycan array binding signal (z-score)", "setting": "[13]", "result": -0.289},
      {"measurement": "glycan array binding signal (z-score)", "setting": "[14]", "result": 1.11},
      {"measurement": "glycan array binding signal (z-score)", "setting": "[15]", "result": -0.371},
      {"measurement": "glycan array binding signal (z-score)", "setting": "[16]", "result": -0.14},
      {"measurement": "glycan array binding signal (z-score)", "setting": "[17]", "result": -0.227},
      {"measurement": "glycan array binding signal (z-score)", "setting": "[18]", "result": 0.938},
      {"measurement": "glycan array binding signal (z-score)", "setting": "[19]", "result": -0.199},
      {"measurement": "glycan array binding signal (z-score)", "setting": "Fuc(a1-3)GlcNAc", "result": 0.419},
      {"measurement": "glycan array binding signal (z-score)", "setting": "[20]", "result": -0.224},
      {"measurement": "glycan array binding signal (z-score)", "setting": "[21]", "result": -0.288},
      {"measurement": "glycan array binding signal (z-score)", "setting": "[22]", "result": 0.916},
      {"measurement": "glycan array binding signal (z-score)", "setting": "[23]", "result": 5.4},
      {"measurement": "glycan array binding signal (z-score)", "setting": "[24]", "result": -0.103},
      {"measurement": "glycan array binding signal (z-score)", "setting": "[25]", "result": 0.293},
      {"measurement": "glycan array binding signal (z-score)", "setting": "[26]", "result": -0.036},
      {"measurement": "glycan array binding signal (z-score)", "setting": "[27]", "result": -0.226},
      {"measurement": "glycan array binding signal (z-score)", "setting": "[28]", "result": 0.022}
    ]}
  ]
}
